Results: paper PMC11603075 (Communications Biology, 2024)

Columns and labels:
KDM4E = target: T1, KDM4E (Homo sapiens, UniProt B2RXH2); assay: MALDI–TOF MS time course of H3(1–21)K9me3 demethylation, cofactor dependence; type: biochemical; details: 0.6 µM KDM4E, 10 µM peptide; no 2OG; n = 2
T1 construct: KDM4E1–337; made in house; host or cells: E. coli
T1 sequence (B2RXH2 1-337): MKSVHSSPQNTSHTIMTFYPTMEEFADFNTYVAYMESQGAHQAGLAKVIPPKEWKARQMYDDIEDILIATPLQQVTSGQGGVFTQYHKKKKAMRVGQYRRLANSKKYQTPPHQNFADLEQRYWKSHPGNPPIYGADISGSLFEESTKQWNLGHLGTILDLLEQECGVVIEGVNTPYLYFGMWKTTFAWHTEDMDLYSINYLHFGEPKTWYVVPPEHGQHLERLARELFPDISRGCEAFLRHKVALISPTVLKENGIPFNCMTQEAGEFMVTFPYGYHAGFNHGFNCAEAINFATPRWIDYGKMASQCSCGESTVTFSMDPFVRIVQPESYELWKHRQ
Method: (§1) MS-based screening assays with peptides and calf thymus histones were as reported; see Supplementary Table 6 for conditions. Time course assays were based on reported procedures. In brief, equal volumes of the enzyme and substrate solutions were combined to initiate the reaction; 10 µL of 2% (v/v) formic acid (HCOOH) in ddH2O or 100% methanol was added to 10 µL of the reaction mixture to quench reactions at different time points. Unless otherwise stated, time course assays were carried out in triplicate.
MAL DI –TOF MS time courses measuring (a) +16 Da product formation with H2a(1– 20) and (b) demethylation of H3(1–21)K9me3 by KDM4E. Time courses with all components (i.e.
(NH4)2Fe(SO4)2 (Fe(II)), sodium L-ascorbate (Asc) and 2OG), or with one missing component (Fe(II), […]
ascorbate or 2OG) were done. […] Error bars: +/- SD; n = 2
(independent assays). Legend for (a) and (b) can be foun d combined in (b). Condit ions: (a) 2 µM KDM4E, 7 […]
µM (NH4)2Fe(SO4)2, and 50 mM HEPES (pH 7.5). (c,d) Inhibition of arginine hydroxylation (ROH) activity of KDM4E by small molecule 2OG oxygenase inhibitors. ( c ) ROH activity measurements were performed using an LC–MS based assay (Error bars; +/- SD; n = 3 independent assays). Conditions: 10 µM H2a(1 -20) incubated with 1 µM KDM4E, 100 µM sodium L-ascorbate, 10 µM (NH4)2Fe(SO4)2 and 100 µM 2OG.
Reactions wer e quenched after 90 min.
KDM and RDM activity. […]

KDM4C = assay: MALDI–TOF MS demethylation/+16 Da assay, KDM4C; type: biochemical, human; details: 60 min
Text: (§2) Fig. 2 Histone H2a fragments are KDM5 and KDM4 substrates. […] See Supplementary Table 6 and Supplementary Fig. 2 for assay conditions and quantification, respectively. […] 0-minute MS spectrum in black, 60/90-minute spectrum in red.
as §1, with “triplicate. In some cases, LC–MS was used instead of MALDI-TOF MS to avoid a MALDI matrix induced artefact with the hydroxylated product (Supplementary Fig. 16). […]” for “triplicate.”
(§3) Supplementary Figure 2 Histone H2a peptide fragments are substrates of KDM4s and KDM5s.
(§4) 2 for representative corresponding MALDI–TOF MS traces. Bar graphs comparing % product format ion (+16 Da and demethylation) of H2a(1–20)R3me2a by (a) K DM5 A–D (after 90 minutes) and (b) KDM4A–E ( a ft er 60 minutes), analysed by MALDI– TOF MS. n = (a) 2, (b) 3 (independent assays). See Supplementary Table 6 for assay condit ions. See Figure S13 A 1 for a positive control.
(§5) (also on this page, place not known: formation KDM5A–D (after MALDI–TOF conditions. Figure S13A1 KDM4A KDM4B KDM4C KDM4D KDM4E 80% product formation KDM5A KDM5B KDM5C KDM5D % product formation) […]
(§6) [ E nz ym e] [Peptide] [2OG] [Ascorbate] [(NH4)2F e(S O4)2] [TCEP] Buffer pH7.5 Enzyme Cognate substrate (mM) (mM) (mM) (mM) (mM) (mM) [HE PE S]
(§7) Supplementary Table 6 Summary of MS assay conditions for substrate screening. These conditions enabled efficient turnover of established substrates. Reactions were carried out at 37 °C unless otherwise st ated. […]

KDM4E1–337 = assay: MALDI–TOF MS product formation, KDM4E1–337; type: biochemical, human; details: 60 min; for % product formation: 1 µM enzyme, 10 µM peptide
Method: (§8) Supplementary Figure 5 H2aR3me2a is a substrate of full length KDM4A. (a) Representative MALDI–T OF
(§9) MS (60 -minute incubation) (from top to bottom) K DM4A 1–1064, KDM4A1–35 9 and KDM4E1–337 w it h H 2 a( 1–
(§10) Representative data are shown from n = 3 (independent assays). Charge state of labelled ions: [MH]+. (b)
(§11) Bar graph comparing % product format ion of H2a(1 –20)R3me2a by KDM4A1–10 64, KDM4A1–359 and KDM4E1–
(§12) 33 7, analysed by MALDI–TOF MS. n = 2/3 (independent assays). Conditions: 1 µM KDM4A1–359 and KDM4E1–
(§13) (NH4)2Fe(SO4)2, and 50 mM HEPES (pH 7.5), 1 mM TCEP, 0.02% (v/v) Triton-X . […]

KDM4B = assay: MALDI–TOF MS demethylation/+16 Da assay, KDM4B; type: biochemical, human; details: 60 min
Text: as §2
as §1, with “triplicate. In some cases, LC–MS was used instead of MALDI-TOF MS to avoid a MALDI matrix induced artefact with the hydroxylated product (Supplementary Fig. 16). […]” for “triplicate.”
as §3, §4, §5, §6, §7

KDM4A1–359 = assay: MALDI–TOF MS product formation, KDM4A1–359; type: biochemical, human; details: 1 µM enzyme, 10 µM peptide, 60 min
Method: as §8, §9, §10, §11, §12, §13

KDM4D = assay: MALDI–TOF MS demethylation/+16 Da assay, KDM4D; type: biochemical, human; details: 60 min
Text: as §2
as §1, with “triplicate. In some cases, LC–MS was used instead of MALDI-TOF MS to avoid a MALDI matrix induced artefact with the hydroxylated product (Supplementary Fig. 16). […]” for “triplicate.”
as §3, §4, §5, §6, §7

AR T KQ T AR K[ me 3] ST GGKAPR KQ L A [H3(1–21)K9me3, reference compound]
reaction without 2OG (KDM4E): No reaction was observed without 2OG

Ac - SGR [ me 2a ] GKQ GGKAR AKAKT R SSR [H2a(1–20)R3me2a, H2a(1–20)R3me2a without a biotin tag]
+16 Da (% product formation) (KDM4C; replicate 1): 0%
demethylation (% product formation) (KDM4C; replicate 1): 12.3348%
+16 Da (% product formation) (KDM4C; replicate 2): 0%
demethylation (% product formation) (KDM4C; replicate 2): 13.2148%
+16 Da (% product formation) (KDM4C; replicate 3): 0%
demethylation (% product formation) (KDM4C; replicate 3): 16.3411%
RDM activity (KDM4C; KDM4C catalytic domain): RDM activity was also observed
% product formation (KDM4E1–337; replicate 1): 38.2963%
% product formation (KDM4E1–337; replicate 2): 33.1012%
–14 Da mass shift (demethylation) (KDM4E1–337; MALDI–TOF MS, n = 3): –14 Da mass shifts
+16 Da (% product formation) (KDM4B; replicate 1): 0%
demethylation (% product formation) (KDM4B; replicate 1): 53.7655%
+16 Da (% product formation) (KDM4B; replicate 2): 0%
demethylation (% product formation) (KDM4B; replicate 2): 51.9581%
+16 Da (% product formation) (KDM4B; replicate 3): 0%
demethylation (% product formation) (KDM4B; replicate 3): 51.6457%
RDM activity (KDM4B; KDM4B catalytic domain): RDM activity was also observed
% product formation (KDM4A1–359; replicate 1): 16.7473%
% product formation (KDM4A1–359; replicate 2): 14.819%
+16 Da (% product formation) (KDM4D; replicate 1): 0%
demethylation (% product formation) (KDM4D; replicate 1): 12.4455%
+16 Da (% product formation) (KDM4D; replicate 2): 0%
demethylation (% product formation) (KDM4D; replicate 2): 5.572%
+16 Da (% product formation) (KDM4D; replicate 3): 0%
demethylation (% product formation) (KDM4D; replicate 3): 7.194%
